{"source": "PubChem BioAssay AID1259407", "about": "(Chemical Carcinogenesis Research Information System (CCRIS), 2018)", "tested_on": "CCRIS mutagenicity, Ames/micronucleus/aberration tests", "assay": "CCRIS mutagenicity studies", "details": "Test System: AMES SALMONELLA TYPHIMURIUM", "note": "The source holds more than one record for some entries. Only these are listed. No rule for the calls is given here. The source may hold further records. The records of an entry are repeats in other runs, samples, wells, individuals or studies. Records carry a tag for their origin. The letters are not those of the source and start again with each entry.", "data": [{"smiles": "O=C(O)C(Cl)Cl", "values": [{"measurement": "mutagenic call", "setting": "Strain/Indicator: TA98, Metabolic Activation: NONE, Method: PREINCUBATION", "value": "active; positive [study A] and inactive; negative [study B]"}]}, {"smiles": "COC(=O)c1oc([N+](=O)[O-])c(Cl)c1Cl", "values": [{"measurement": "mutagenic call", "setting": "Strain/Indicator: TA100, Metabolic Activation: NONE, Method: STANDARD PLATE", "value": "active; positive [sample A, 0 to 3 µg/plate] and inactive; negative [sample B, 10 to 100 µg/plate]"}]}, {"smiles": "Oc1c2c3c(ccc4ccc5cccc1c5c43)-c1ccccc1-2", "values": [{"measurement": "mutagenic call", "setting": "Strain/Indicator: TA100, Metabolic Activation: RAT, LIVER, S-9, AROCLOR 1254, Method: STANDARD PLATE", "value": "active; positive [sample A, 0 to 50 µg/plate] and inactive; negative [sample B, 0 to 50 µg/plate]"}]}, {"smiles": "O=CC(Cl)(Cl)Cl", "values": [{"measurement": "mutagenic call", "setting": "Strain/Indicator: TA100, Metabolic Activation: NONE, Method: PREINCUBATION", "value": "active; positive [study A] and inactive; negative [study B]"}]}]}
